Data published in PubChem BioAssay AID1508623 (National Center for Advancing Translational Sciences (NCATS), 2021).
Out of some 48,000 compounds screened, about 450 (0.94%) were called active. Inconclusive results (about 19%) are left out. The call rests on the fitted dose curve; in most records, active means well fitted inhibition curve with a large enough effect; inconclusive means small, poorly fitted or top-dose-only effect; inactive means no such curve, though single readings can be large or run the other way. This is one part of the list.

Experiment: Primary qHTS for Identification of Small Molecule Inhibitors of Huntingtin Promoter Activity; further: nearly all actives have a fitted effect of over 50% in size
Conditions: HEK293 HTT promoter firefly luciferase reporter (activity 0% = vehicle and -100% = no light), 24 h; series mostly up to 57.5 µM; activity change, negative = inhibition: at the top concentration
How it was run: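 Firefly luciferase signal from promoter-reporter HEK293 cells was scaled between vehicle (0%) and zero RLU (-100%). Compounds were tested at final concentrations of up to 57.5 uM over 24 h at 37 degrees C. PTC124 at 50 uM final served as control inhibitor.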

Activity change, negative = inhibition, inactive:
Cc1nn(-c2ccc(N3CCOCC3)nn2)c(C)c1CCC(=O)NCc1ccc(OC(C)C)cc1 -16.7%
Cc1cccc(N(C)S(=O)(=O)c2cc3c(cc2Cl)NC(=O)CO3)c1 -26.6%
CCOc1ccc(NS(=O)(=O)c2ccc3[nH]c4c(c3c2)CCCC4)cc1 -3.83%
COc1ccc(-c2cn3nc(N4CCC(C(=O)Nc5cccc(C)c5C)CC4)sc3n2)cc1 -16.3%
CCCSc1ncc(Cl)c(C(=O)Nc2sc3c(c2C(=O)NCCOC)CCCC3)n1 -8.41%
Cc1c(Cl)cccc1NC(=O)CSc1nc(=O)n(Cc2ccccn2)c2c1CCC2 -11.5%
O=C(Nc1ccc(F)cc1F)c1cc(-c2ccccc2O)no1 -12.6%
Cc1ccc(NC(=O)Cn2c(=O)n(CCCCC(=O)NCCc3ccccc3)c(=O)c3ccccc32)c(C)c1 -7.56%
CCCCOC(=O)c1ccc(NC(=O)c2cc3c(=O)n4cccc(C)c4nc3n2C)cc1 0.532%
COCCNC(=O)CCCn1c(=O)c2cc(OC)c(OC)cc2n(CC(=O)Nc2ccc(F)cc2)c1=O -10%
O=C(COc1ccccc1Cl)Nc1ccc2oc(-c3ccccc3F)nc2c1 14%
CCOC(=O)C1CCN(CCC(=O)Nc2ccc(Br)c(C)c2)CC1 -5.91%
O=C(CSc1nc(=O)[nH]c2c1CCCC2)Nc1ccccc1C(F)(F)F -18.2%
Cc1ccc(NC(=O)C(NS(=O)(=O)c2ccc3c(c2)CCC(=O)N3)c2ccccc2)cc1C (stereo unspecified) -9.25%
COc1ccc(NC(=O)c2nnn(Cc3nc(-c4cc(Br)ccc4OC)oc3C)c2C)cc1 -6.72%
CCOc1cccc(C2c3c(oc4ccc(F)cc4c3=O)C(=O)N2CCc2ccc(OC)cc2)c1 (stereo unspecified) 5.92%
COc1ccc(Nc2cc(C(=O)NC3CCCC3)c3ccccc3n2)c(OC)c1 -3.13%
CCNC(=O)Cn1c(-c2cccs2)cc2ccccc21 -24.2%
Cc1ccc(CN(C(=O)Nc2cccc(Cl)c2)c2ccccn2)cc1 -4.72%
Cc1oc(C)c2c(=O)cc(-c3ccc4c(c3)OCO4)cc(OC(=O)c3ccccc3Br)c12 -26.8%
COc1ccc(NC(=O)C2CCN(S(=O)(=O)c3ccc4c(c3)CCCC(=O)N4)CC2)cc1Cl -21.3%
COc1ccc(S(=O)(=O)N2CCN(c3ccccc3OC)CC2)cc1-c1noc(C)n1 4.89%
COc1cc(/C=C(\C#N)c2nc3ccccc3c(=O)[nH]2)cc(OC)c1OC 13.9%
Cc1ccc(Cn2c(-c3ccccc3)nc3ccccc32)cc1 6.78%
Cc1ccc(-c2nc3ccccc3n3c(-c4ccccc4)c4c(=O)n(C)c(=O)n(C)c4c23)cc1 -4.93%
CCn1ccc2cc(S(=O)(=O)N3CCCN(C(=O)NCC(C)C)CC3)ccc21 -33.1%
